# Laboratory results as given in the supplement of paper PMC4604168 (melanoma cell lines).
# The list shows a part of the results. Many values rest on one well or one pass, so single values are uncertain.
# What was measured:
# Assay in all cases: cell count relative to DMSO control; melanoma cells; higher = more viable cells
# Conditions in all cases: library dose: low library concentration; 72 h
# COLO792 = tested on: COLO792
# COLO800 = tested on: COLO800
# COLO829 = tested on: COLO829
# G361 = tested on: G361
# IPC-298 = tested on: IPC-298
# IST-MEL1 = tested on: IST-MEL1
# LB2518-MEL = tested on: LB2518-MEL
# LOXIMVI = tested on: LOXIMVI
# MEL-HO = tested on: MEL-HO
# 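Further: cell number obtained by counting DAPI-stained nuclei in high-throughput microscope images with image analysis software, screen run in 1,536-well plates.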
Structure (SMILES),cell count (COLO792) [%],cell count (COLO800) [%],cell count (COLO829) [%],cell count (G361) [%],cell count (IPC-298) [%],cell count (IST-MEL1) [%],cell count (LB2518-MEL) [%],cell count (LOXIMVI) [%],cell count (MEL-HO) [%]
"CCCCCCCCc1ccc(CCC(N)(CO)CO)cc1 [fingolimod] + CCN(CC)CCCCNc1ncc2cc(-c3cc(OC)cc(OC)c3)c(NC(=O)NC(C)(C)C)nc2n1 [PD173074] (first compound 2 µM, partner dose 0.1 µM)",108,92.8,45.5,80.9,96,103,104,73.3,106
"CCCCCCCCc1ccc(CCC(N)(CO)CO)cc1 [fingolimod] + C=CCn1c(=O)c2cnc(Nc3ccc(N4CCN(C)CC4)cc3)nc2n1-c1cccc(C(C)(C)O)n1 [MK1775] (first compound 2 µM, partner dose 0.02 µM)",87.5,111,103,86.4,96.2,88,72,65,80.4
"Cc1ccc(NC(=O)c2cccc(N(C)C)c2)cc1NC(=O)c1ccc(O)cc1 + CO[C@@H]1[C@H](N(C)C(=O)c2ccccc2)C[C@H]2O[C@]1(C)n1c3ccccc3c3c4c(c5c6ccccc6n2c5c31)C(=O)NC4 [Midostaurin] (first compound 2 µM, partner dose 0.08 µM)",114,106,86.3,96.7,74.4,91.9,79.7,74.8,80.7
"CC(C)(C)c1cnc(CSc2cnc(NC(=O)C3CCNCC3)s2)o1 + CN(NC(=O)CC(=O)NN(C)C(=S)c1ccccc1)C(=S)c1ccccc1 [STA4783] (first compound 0.01 µM, partner dose 0.006 µM)",69.9,90.8,73.4,82.4,97.1,80.2,67.4,51.7,90.2
"CCCCCCCCc1ccc(CCC(N)(CO)CO)cc1 [fingolimod] + CC(C)CCN1c2nc(Nc3cc(F)c(O)c(F)c3)ncc2N(C)C(=O)C1C [BID1870] (first compound 2 µM, partner dose 0.2 µM)",88.4,92.7,90.5,90.8,96.9,105,109,90.1,95.7
"NC(=O)c1ccc(N(C(N)=O)c2c(F)cccc2F)nc1-c1ccc(F)cc1F + Oc1cc(-c2nc(-c3ccccc3)[nH]c2-c2ccncc2)ccc1Cl [L779450] (first compound 0.4 µM, partner dose 0.2 µM)",100,94.6,119,86.3,84.4,95.4,99.2,145,87
"CCCCCCCCc1ccc(CCC(N)(CO)CO)cc1 [fingolimod] + CC1(C)NC(=O)N(c2ccc([N+](=O)[O-])c(C(F)(F)F)c2)C1=O [nilutamide] (first compound 2 µM, partner dose 1 µM)",103,90.5,109,80.6,107,107,111,81.1,86.8
"Cc1ccc(NC(=O)c2cccc(N(C)C)c2)cc1NC(=O)c1ccc(O)cc1 + COc1cc2c(Oc3ccc4[nH]c(C)cc4c3F)ncnc2cc1OCCCN1CCCC1 [cediranib] (first compound 2 µM, partner dose 0.4 µM)",115,96.1,97.4,96.5,84.4,102,94.7,139,88.3
"CC(C)(C)c1cnc(CSc2cnc(NC(=O)C3CCNCC3)s2)o1 + Cc1cc(N2CCOCC2)cc2[nH]c(-c3c(NC[C@@H](O)c4cccc(Cl)c4)cc[nH]c3=O)nc12 [BMS536924] (first compound 0.01 µM, partner dose 0.2 µM)",82.2,66.9,137,83,101,99.3,86.3,78.1,107
"CC(C)(C)c1cnc(CSc2cnc(NC(=O)C3CCNCC3)s2)o1 + C[C@@H]1CCN(C(=O)CC#N)C[C@@H]1N(C)c1ncnc2[nH]ccc12 [CP690550] (first compound 0.01 µM, partner dose 1 µM)",92.6,69.5,88.6,96.3,101,99.8,98.8,83.8,110
"Cc1ccc(NC(=O)c2cccc(N(C)C)c2)cc1NC(=O)c1ccc(O)cc1 + CN(C)S(=O)(=O)c1ccc2c(c1)/C(=C/c1cc3c([nH]1)CCCC3)C(=O)N2 [SU6656] (first compound 2 µM, partner dose 0.4 µM)",101,114,87.3,99.3,82.5,91.5,85.3,124,82.9
"CC(C)(C)c1cnc(CSc2cnc(NC(=O)C3CCNCC3)s2)o1 + NC(=O)Nc1cc(-c2cccc(F)c2)sc1C(=O)N[C@H]1CCCNC1 [AZD7762] (first compound 0.01 µM, partner dose 0.02 µM)",89.1,72.7,99.8,106,99.8,96.5,138,85.7,105
"NC(=O)c1ccc(N(C(N)=O)c2c(F)cccc2F)nc1-c1ccc(F)cc1F + CN(NC(=O)CC(=O)NN(C)C(=S)c1ccccc1)C(=S)c1ccccc1 [STA4783] (first compound 0.4 µM, partner dose 0.006 µM)",67.7,44.7,60,76.9,99.7,88,66.7,103,97.8
"NC(=O)c1ccc(N(C(N)=O)c2c(F)cccc2F)nc1-c1ccc(F)cc1F + O=S(=O)(c1ccccc1)N(CC(F)(F)F)c1ccc(C(O)(C(F)(F)F)C(F)(F)F)cc1 [T0901317] (first compound 0.4 µM, partner dose 1.4 µM)",96.9,96,98.7,94.7,91.9,98.9,79.3,132,104
"CCCCCCCCc1ccc(CCC(N)(CO)CO)cc1 [fingolimod] + NC(=O)Nc1cc(-c2cccc(F)c2)sc1C(=O)N[C@H]1CCCNC1 [AZD7762] (first compound 2 µM, partner dose 0.02 µM)",92.4,72.5,113,128,107,125,149,93.1,92.6
"CCCCCCCCc1ccc(CCC(N)(CO)CO)cc1 [fingolimod] + CCc1ccc(CCOc2ccc(CC3SC(=O)NC3=O)cc2)nc1 [pioglitazone] (first compound 2 µM, partner dose 2 µM)",69.3,119,76.7,82.1,93.4,93.5,50.4,95.1,81.5
"NC(=O)c1ccc(N(C(N)=O)c2c(F)cccc2F)nc1-c1ccc(F)cc1F + COc1ccc2c(c1)CCC1C2CCC2(C)C(NCCCCCCN3C(=O)C=CC3=O)CCC12 [U73122] (first compound 0.4 µM, partner dose 0.4 µM)",88.5,64,98.6,94.3,93.4,94.9,94.8,77.5,105
"CCCCCCCCc1ccc(CCC(N)(CO)CO)cc1 [fingolimod] + Cn1cncc1[C@@](N)(c1ccc(Cl)cc1)c1ccc2c(c1)c(-c1cccc(Cl)c1)cc(=O)n2C [tipifarnib] (first compound 2 µM, partner dose 0.01 µM)",96.7,94,61.6,89.2,98.3,91.5,72.5,64.4,94.8
"NC(=O)c1ccc(N(C(N)=O)c2c(F)cccc2F)nc1-c1ccc(F)cc1F + C[C@@H]1CCN(C(=O)CC#N)C[C@@H]1N(C)c1ncnc2[nH]ccc12 [CP690550] (first compound 0.4 µM, partner dose 1 µM)",94.8,97.4,74.5,101,103,97.1,110,130,110
"NC(=O)c1ccc(N(C(N)=O)c2c(F)cccc2F)nc1-c1ccc(F)cc1F + CCc1ccc(CCOc2ccc(CC3SC(=O)NC3=O)cc2)nc1 [pioglitazone] (first compound 0.4 µM, partner dose 2 µM)",104,157,90.1,111,104,99.9,,108,96.3
"NC(=O)c1ccc(N(C(N)=O)c2c(F)cccc2F)nc1-c1ccc(F)cc1F + OCCn1cc(-c2cnc3nnn(Cc4ccc5ncccc5c4)c3n2)cn1 [PF04217903] (first compound 0.4 µM, partner dose 1 µM)",87,105,108,86.7,105,103,90,126,96.8
"NC(=O)c1ccc(N(C(N)=O)c2c(F)cccc2F)nc1-c1ccc(F)cc1F + CC1(C)NC(=O)N(c2ccc([N+](=O)[O-])c(C(F)(F)F)c2)C1=O [nilutamide] (first compound 0.4 µM, partner dose 1 µM)",87.9,96.8,109,95.3,104,102,109,119,108
"CCCCCCCCc1ccc(CCC(N)(CO)CO)cc1 [fingolimod] + O=C(Nc1cccc(Cl)c1)Nc1ncc(CCNc2ncnc3ccsc23)s1 [SNS314] (first compound 2 µM, partner dose 0.0008 µM)",97.5,89.1,85.6,84.5,100,82.6,105,35.9,93.7
"CCCCCCCCc1ccc(CCC(N)(CO)CO)cc1 [fingolimod] + COc1ccc(COc2ccc(Cc3cnc(N)nc3N)cc2OC)cc1 [GW2580] (first compound 2 µM, partner dose 1 µM)",87.9,74.1,110,98,88,109,,89.3,90.2
"CC(C)(C)c1cnc(CSc2cnc(NC(=O)C3CCNCC3)s2)o1 + CN(C)S(=O)(=O)c1ccc2c(c1)/C(=C/c1cc3c([nH]1)CCCC3)C(=O)N2 [SU6656] (first compound 0.01 µM, partner dose 0.4 µM)",81.7,55.1,96.4,90.6,99.5,91.9,97.1,81,99.5
